# Assay results taken from PubChem BioAssay AID360 (National Center for Advancing Translational Sciences (NCATS), 2006).
# Screen size: about 48,000 compounds; about 550 (1.1%) were called active. Another 4% or so got no clear call; they are omitted. No stated cut-off is given here; in the data, active means potency below about 15 µM; inconclusive means mostly about 16 µM to 33 µM; inactive means weaker than that. The list shows a part of the results.
# Molecular target: Lysosomal acid glucosylceramidase (Homo sapiens) (UniProt P04062)
# Assay: Glucocerebrosidase;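 further: the screen sought inhibitors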
# Settings: purified enzyme, resorufin glucoside fluorescence (screen aimed at inhibitors), 20 min; series mostly up to 77 µM
# Procedure, shortened: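 Wild-type enzyme at 0.2 nM final in 50mM citric acid/KH2PO4, 10mM sodium taurocholate, 0.01% tween-20, pH 5.9, with resorufin beta-D-glucopyranoside at 30 uM final. Compounds titrated, 20 min at RT, red fluorescence read; AC50 from titration.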
# Potency means the concentration at half of the fitted maximal effect.
# Sequence of UniProt P04062 (P04062 whole entry, looked up): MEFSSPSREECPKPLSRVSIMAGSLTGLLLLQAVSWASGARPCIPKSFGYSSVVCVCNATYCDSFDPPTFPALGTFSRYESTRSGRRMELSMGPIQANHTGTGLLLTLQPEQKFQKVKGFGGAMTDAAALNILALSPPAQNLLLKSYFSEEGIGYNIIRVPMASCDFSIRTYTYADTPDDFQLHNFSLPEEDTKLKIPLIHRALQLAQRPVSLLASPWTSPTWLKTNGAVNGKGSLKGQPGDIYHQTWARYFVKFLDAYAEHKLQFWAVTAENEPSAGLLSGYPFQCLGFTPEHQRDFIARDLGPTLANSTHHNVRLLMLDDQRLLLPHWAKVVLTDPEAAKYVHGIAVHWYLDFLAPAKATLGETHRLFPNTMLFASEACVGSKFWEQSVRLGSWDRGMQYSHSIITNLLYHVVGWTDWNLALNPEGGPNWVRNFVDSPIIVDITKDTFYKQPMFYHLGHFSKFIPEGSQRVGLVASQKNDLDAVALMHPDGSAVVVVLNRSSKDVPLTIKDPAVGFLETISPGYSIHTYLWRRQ
row,Compound,Potency
1,CCSc1nc2c(c(=O)[nH]1)C(c1ccncc1)C(C(=O)OC(C)C)=C(C)N2 (stereo not given),inactive: > 76.9 µM
2,CN(C(=O)c1ccc2c(c1)OCO2)C1(C(=O)NC2CCCCC2)CCCCC1,inactive: > 76.9 µM
3,Clc1ccc(-c2nn3c(-c4ccccc4)nnc3s2)cc1,inactive: > 76.9 µM
4,Cc1c(C(=O)NCc2ccc3c(c2)OCO3)oc2ccc(S(=O)(=O)N3CCCC3)cc12,inactive: > 76.9 µM
5,CC(=O)c1ccc(S(=O)(=O)NCCCC(=O)NCCc2ccccn2)cc1,inactive: > 76.9 µM
6,Cc1ccc2[nH]c(C)c(CN(C)C3CCN(C)CC3)c(=O)c2c1,inactive: > 76.9 µM
7,O=C(C1CCN(S(=O)(=O)c2cccnc2)CC1)N1CCN(c2ccccc2Cl)CC1,inactive: > 76.9 µM
8,Cc1c(N(C(=O)Nc2ccccc2)C2=NCC(C)S2)c(=O)n(-c2ccccc2)n1C (stereo not given),inactive: > 76.9 µM
9,O=C(COC(=O)c1n[nH]c2ccccc12)NC(=O)NCc1ccco1,inactive: > 76.9 µM
10,COc1ccccc1CNC(=O)c1ccc(NS(C)(=O)=O)cc1,inactive: > 76.9 µM
11,C=CCn1c(SCC(=O)Nc2ccccc2C)nnc1-c1ccncc1,inactive: > 76.9 µM
12,CC(OC(=O)c1cc2sccc2n1C)C(=O)NCc1ccco1 (stereo not given),inactive: > 76.9 µM
13,Cc1ccc2c(Cl)cc(Cl)c(OCc3c(C)noc3C)c2n1,inactive: > 76.9 µM
14,Cc1ccc2[nH]c(=O)c(CN(Cc3ccco3)S(=O)(=O)c3c(C)ccc4nsnc34)cc2c1,inactive
15,COC(=O)c1c(NC(=O)CSc2nc3c(c(=O)n(C)c(=O)n3C)n2C(C)C)sc(C)c1C,inactive: > 76.9 µM
16,O=C(Cc1c(C(=O)O)[nH]c2ccccc12)NC1CCN(Cc2ccccc2)CC1,inactive: > 76.9 µM
17,COc1ccc(C(c2nnnn2C2CCCC2)N2CCC(C)CC2)c(OC)c1 (stereo not given),inactive: > 76.9 µM
18,Cc1cc(NC(=O)CSc2nnc(-c3ccoc3C)o2)no1,inactive: > 76.9 µM
19,Cc1cc(NS(=O)(=O)c2ccc(C3CCCCC3)cc2)no1,inactive: > 76.9 µM
20,CS(=O)(=O)N1CCN(c2nnc(-c3ccccc3)c3ccccc23)CC1,inactive: > 76.9 µM
21,CC(C)C(OC(=O)c1ccco1)C(=O)NCc1cccs1 (stereo not given),inactive: > 76.9 µM
22,Cc1occc1C(=O)NCc1ccccn1,inactive: > 76.9 µM
23,CCOC(=O)c1cnn2c(C(F)F)cc(C3CC3)nc12,inactive: > 76.9 µM

row,Compound,Potency
1,COc1ccc(OC)c(C(=O)Cn2nnc3ccccc3c2=O)c1,inactive: > 76.9 µM
2,O=C(O)Cc1coc(-c2ccc(F)cc2)n1,inactive: > 76.9 µM
3,Cc1oc(C(=O)O)cc1COc1ccccc1Cl,inactive: > 76.9 µM
4,Cc1[nH]c2ccccc2c1C(=O)CN1CCC(C(N)=O)(N2CCCCC2)CC1,inactive: > 76.9 µM
5,CC(C)(C)NC(=O)CN(C(=O)C1CSC(=O)C1)c1ccc2c(c1)OCCO2 (stereo not given),inactive: > 76.9 µM
6,Cc1ccc(C2C(=O)N(C3CCCC3)CC(=O)N2CC2COc3ccccc3O2)cc1 (stereo not given),inactive: > 76.9 µM
7,CC(C)CNc1nc(Oc2ccc(=O)n(-c3ccccc3)n2)nc(N2CCOCC2)n1,inactive: > 76.9 µM
8,COc1ccc(CC(NC(C)=O)C(=O)NC2CCN(C(=O)NCc3ccccc3)CC2)cc1OC (stereo not given),inactive: > 76.9 µM
9,CCOC(=O)C1CCCN(Cc2ccccc2C)C1 (stereo not given),inactive: > 76.9 µM
10,CCOC(=O)C1=C(C)N=C2SCCC(=O)N2C1c1sccc1C (stereo not given),inactive: > 76.9 µM
11,COc1ccc(-c2cc(-c3ccc(OC)cc3)[nH]n2)cc1,inactive: > 76.9 µM
12,COc1cc(C2c3c(-c4cc(C)cc(C)c4O)n[nH]c3C(=O)N2CCCO)cc(OC)c1OC (stereo not given),inactive: > 76.9 µM
13,CCCn1c(=NC(C)=O)c(C(=O)OCC)cc2c(=O)n3ccccc3nc21,inactive: > 76.9 µM
14,c1ccc(CNC2=NCCC2)nc1,inactive: > 76.9 µM
15,Cn1c(N)c(C(=O)NCc2ccccc2)sc1=S,inactive: > 76.9 µM
16,CCCCn1nc(NC(=O)c2cccs2)c2cc3cc(OC)ccc3nc21,inactive
17,CC(C)CC(c1nnnn1Cc1ccco1)N1CCN(C2CCCC2)CC1 (stereo not given),inactive: > 76.9 µM
18,O=C(O)c1cc(-c2ccc3c(c2)OCO3)nc2ccccc12,inactive: > 76.9 µM
19,Cc1ccc(C(=O)CSc2nnc(CNc3ccc(C)cc3C)o2)cc1,inactive: > 76.9 µM
20,O=C(CN1CCOCC1)Nc1ccccc1NC(=O)C1CCN(c2ncccn2)CC1,inactive: > 76.9 µM
21,Cc1ccc2cc(CN(CCN3CCOCC3)C(=O)NCc3ccccc3)c(=O)[nH]c2c1C,inactive: > 76.9 µM
22,O=c1c2ccccc2nnn1Cc1nnc(-c2ccccc2Br)o1,inactive: > 76.9 µM
23,O=C(Nc1nnc(COc2ccc(Cl)cc2)s1)C1CCCO1 (stereo not given),inactive: > 76.9 µM

row,Compound,Potency
1,CCCCN(CCCC)C(=O)CSc1nnc(-c2cc(OC)c(OC)c(OC)c2)o1,inactive: > 76.9 µM
2,COc1cccc(CNC(=O)c2nnn(CC(=O)Nc3ccc(C)c(C)c3)c2N)c1,inactive: > 76.9 µM
3,COC(=O)c1cccc(NC(=O)CSc2nc(C)cc(=O)[nH]2)c1,inactive: > 76.9 µM
4,O=C(O)CCCC(=O)N1CC(=O)Nc2ccccc21,inactive: > 76.9 µM
5,CC(=O)c1c(N2CCN(Cc3ccc4c(c3)OCO4)CC2)nc(=S)n(-c2ccccc2)c1C,inactive: > 76.9 µM
6,CCOc1ccccc1Oc1coc2cc(OC(=O)c3ccco3)ccc2c1=O,inactive: > 76.9 µM
7,CCOCC(=O)Nc1nnc(C2CCCCC2)s1,inactive: > 76.9 µM
8,O=C1OC(N2CCN(C(=O)C3CCCO3)CC2)c2ccccc21 (stereo not given),inactive: > 76.9 µM
9,O=C(Nc1ccc(OC(=O)c2ccncc2)cc1)c1ccncc1,active: 1.86 µM
10,COc1ccc2c(Cl)c(-c3nnc4n3CCCCC4)sc2c1,inactive: > 76.9 µM
11,O=C(CCN1CCC(c2ccccc2)C1)c1cccs1 (stereo not given),inactive: > 76.9 µM
12,CCOC(=O)C1C2C=CC3(CN(Cc4ccco4)C(=O)C13)O2 (stereo not given),inactive: > 76.9 µM
13,Cc1nc2nc[nH]n2c(=O)c1NC(=O)CC12CC3CC(CC(C3)C1)C2,inactive: > 76.9 µM
14,COC(=O)CSc1ccc2nnc(-c3ccc(F)cc3)n2n1,inactive: > 76.9 µM
15,O=C(CCNS(=O)(=O)c1ccc2c(c1)CCC(=O)N2)NCc1ccc2c(c1)OCO2,inactive: > 76.9 µM
16,CC1(C)OC(=O)C(=CNc2ncccn2)C(=O)O1,inactive: > 76.9 µM
17,CCOc1ccc2nc3sc(C(=O)N4CCN(C)CC4)c(N)c3cc2c1,inactive: > 76.9 µM
18,Cn1cc(CN2CCN(c3ccccc3)CC2)c2ccccc21,inactive: > 76.9 µM
19,COc1ccc(NC(=O)CSc2nnc(C3CC3)n2N)cc1,inactive: > 76.9 µM
20,CCOC(=O)CN(C(=O)CNC(=O)c1ccco1)C(C(=O)NC1CCCC1)c1ccccc1OCC (stereo not given),inactive: > 76.9 µM
21,O=C(CN1CCOCC1)Nc1ccc(NC(=O)CN2CCOCC2)c(Cl)c1,inactive: > 76.9 µM
22,CCCC(c1nnnn1C(C)(C)CC)N1CCN(C2CCCC2)CC1 (stereo not given),inactive: > 76.9 µM
23,CC(C(=O)NCc1cccnc1)N1C(=O)c2ccccc2C1=O (stereo not given),inactive: > 76.9 µM

row,Compound,Potency
1,CCOC(=O)C1CCCN(C(=O)c2cn(CC(C)C)c(=O)c3cc(OC)c(OC)cc23)C1 (stereo not given),inactive: > 76.9 µM
2,CCOc1cc(C)c(Cl)cc1S(=O)(=O)N(C)C,inactive: > 76.9 µM
3,O=C(CCS(=O)(=O)c1cc(Br)cc2c1N(C(=O)C1CC1)CC2)NCC1CCCO1 (stereo not given),inactive: > 76.9 µM
4,Cc1nc(C(C)(C)O)n(-c2ccccc2)n1,inactive: > 76.9 µM
5,O=C(c1ccccc1)c1c[nH]c2cc3c(cc2c1=O)OCO3,inactive: > 76.9 µM
6,O=C(c1ccc2c(c1)OCO2)N1CCN(c2ccccc2)CC1,inactive: > 76.9 µM
7,O=C(O)c1cc2cc(F)ccc2[nH]1,inactive: > 76.9 µM
8,COc1ccccc1NC(=O)CCC(=O)O,inactive: > 76.9 µM
9,Cc1ccccc1-c1nnc(SCc2ccccc2F)o1,inactive: > 76.9 µM
10,COC(=O)C1C2C=CC3(CN(c4cccc(C)c4)C(=O)C13)O2 (stereo not given),inactive: > 76.9 µM
11,COc1ccc(S(=O)(=O)n2nc(OC(=O)c3ccc(C)cc3)cc2N)cc1,inactive: > 76.9 µM
12,Cc1cc(N2CCN(S(=O)(=O)c3ccc4c(c3)OCCO4)CC2)n2ncnc2n1,inactive: > 76.9 µM
13,COC(=O)c1cccc(Oc2nc3c(c(=O)n(C)c(=O)n3C)n2Cc2ccc(C)cc2)c1,inactive: > 76.9 µM
14,CCCCCn1c(N2CCN(Cc3ccccc3)CC2)nc2c1c(=O)[nH]c(=O)n2C,inactive: > 76.9 µM
15,COc1ccc(C)cc1S(=O)(=O)N(CC(=O)O)c1ccccc1,inactive: > 76.9 µM
16,CC1CCCC(C)N1C(=O)c1cc(-c2ccc(Cl)c(Cl)c2)on1 (stereo not given),inactive: > 76.9 µM
17,CCc1nnc(NC(=O)C(C)N2C(=O)C3C4C=CC(C4)C3C2=O)s1 (stereo not given),inactive: > 76.9 µM
18,Cn1c(SCC(=O)Nc2ccc3cn[nH]c3c2)nnc1-c1cnccn1,inactive: > 76.9 µM
19,O=C(Cn1c(NCCCO)nc2ccccc21)c1cccc(Br)c1,inactive: > 76.9 µM
20,CC(=O)N1CCc2cc(Br)cc(S(=O)(=O)NCC3CCCO3)c21 (stereo not given),inactive: > 76.9 µM
21,O=C(CN1CCOCC1)Nc1ccc(Oc2ccccc2)cc1,inactive
